Laboratory results: PubChem BioAssay AID493208 (National Center for Advancing Translational Sciences (NCATS), 2011)
About 340 (0.77%) of roughly 44,000 compounds were called active. About 5% were inconclusive and are not listed. Calls come from the whole dose curve; as a rule, active = well fitted inhibition curve with a large enough effect; inconclusive = small, poorly fitted or top-dose-only effect; inactive = flat fitted curve, though single readings scatter. The list shows a part of the results.

test: Acumen qHTS Assay for Inhibitors of the mTORC1 Signaling Pathway in MEF (Tsc2-/-, p53-/-) Cells: Sytravon; conditions: phospho-rpS6 immunofluorescence/PI, 24 h; series mostly up to 38.3 µM; activity change, negative = inhibition: at the top concentration;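 note: plate controls were DMSO for no effect and rapamycin for full effect; nearly all actives have a fitted effect of over 50% in size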
How it was run: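 Readout is phospho-S6 Alexa 488 signal normalized to PI per well, reported as % active cells with thresholds set from rapamycin (7.5 nM) and DMSO controls. Cells: Tsc2-/-, p53-/- MEFs, 24 hrs compound at 37 C; PI cell number serves as viability.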

Activity change, negative = inhibition, inactive:
CSc1cccc(Nc2cc(C(=O)NCCc3ccc(Cl)cc3)c3ccccc3n2)c1 -7.71%
CC1CN(C(=O)N2CCC(C(=O)N3CCN(c4ccccc4)CC3)CC2)c2cc(Cl)ccc2O1 (stereo unspecified) 2.66%
CCOc1ccc2nc(N3CCC(C(=O)Nc4ccccc4CC)CC3)sc2c1 -2.52%
Cc1oc2c(cc(NS(=O)(=O)c3ccc(C(C)C)cc3)c3ccccc32)c1C(=O)O 5.37%
CC(=O)Nc1ccc(S(=O)(=O)N2CCC(c3nnc(-c4ccc(C)cc4)o3)CC2)cc1 -15%
CC(C)C(=O)N1c2nc(-c3ccco3)nn2C2(CCCCC2)[C@@H]2CCCC[C@@H]21 -1.16%
CCN(CC)C(=O)c1sc2c(c1C)c(=O)n(-c1ccc(Cl)c(Cl)c1)c(=O)n2Cc1cc(=O)n2ccccc2n1 0.136%
COc1cccc(CNC(=O)Cn2c(=O)n3nc(-c4cccc(F)c4)nc3c3ccccc32)c1 1.95%
Cc1ccc(CCNc2ncnc3onc(-c4ccc(F)cc4)c23)cc1 -0.568%
COc1ccc(NC(=O)CCn2c(=O)c3cccn3c3cccnc32)cc1Cl -0.908%
O=C(Cn1c(=O)n(CCCS(=O)(=O)C2CCCCC2)c(=O)c2ccccc21)Nc1ccccc1C(F)(F)F 4.55%
Cc1ccc(S(=O)(=O)c2[nH]c(-c3ccccc3)nc2SCC(N)=O)cc1 2.63%
COc1ccccc1CNS(=O)(=O)c1ccc2c(c1)CC(=O)N2C -0.474%
CCOC(=O)N1CCN(C(=O)c2c(C)nn(-c3cccc(C)c3)c2-n2cccc2)CC1 -2.3%
COC(=O)c1sc2ncccc2c1-n1c(C)ccc1C -0.12%
Cc1ccc(C)c(N2CCN(C(=O)CCS(=O)(=O)c3cc4c(cc3Cl)NC(=O)CO4)CC2)c1 11.3%
CCOc1ccccc1NC(=O)C(CC)Sc1nc2ncccc2[nH]1 (stereo unspecified) 2.4%
CCCSc1nnc2c(n1)OC(c1ccc(Br)s1)Nc1ccccc1-2 (stereo unspecified) -0.941%
COc1ccc(-n2ncc3c2ncn2nc(COc4ccc(Cl)cc4)nc32)cc1 -12.8%
COc1ccc(CNC(=O)C2=C(C)C(=O)OC23CCCCC3)cc1 -3.75%
COc1ccc(CCNC(=O)CSc2cn(CCNC(=O)c3cccc(C(F)(F)F)c3)c3ccccc23)cc1OC -9.5%
Cc1ccc(-n2ncc3c(N4CCC(C(N)=O)CC4)ncnc32)cc1 8.85%
O=C(Cn1ncc2ccsc2c1=O)N1CCN(c2ccc(F)cc2)CC1 -2.07%
CCC1CN(C(=O)Nc2cccc3c2CCCC3)c2cc(Cl)ccc2O1 (stereo unspecified) -16.7%
Cc1cc(C(F)F)n2nc(C(=O)Nc3ccc(C(C)C)cc3)nc2n1 -4.52%
Cc1oc(-c2ccccc2Cl)nc1CS(=O)CC(=O)NCc1ccc(Cl)cc1 (stereo unspecified) 2.72%
Fc1ccc(-c2ccc(CNCCSc3nnnn3-c3ccccc3)o2)cc1 -17.2%
O=S(=O)(Nc1nc2ccccc2nc1Nc1ccccc1Br)c1ccccc1 0.785%
Cc1ccc(COc2ccc(-c3cc(C(F)(F)F)n4nc(C)cc4n3)cc2)cc1 -0.0591%
O=C(CSc1nc2c([nH]c3ccccc32)c(=O)n1-c1cccc(Cl)c1)NCC1CCCO1 (stereo unspecified) 0.209%
CCOc1ccc(-c2cn(-c3ccc(C)cc3)c(SCC(=O)Nc3ccc(C)cc3)n2)cc1 -0.274%
COc1cccc(CNC(=O)C(C)n2ncn3cccc3c2=O)c1OC (stereo unspecified) 4.13%
O=C(Cn1c2ncccc2c(=O)n1-c1ccccc1)NCc1ccccc1Cl -3.99%
Cc1ccc(NC(=O)Cc2coc3ccc(C(C)C)cc23)c(C)c1 -0.927%
CC1CCc2c(sc(NC(=O)c3cc(-c4cccc(Cl)c4)on3)c2C(N)=O)C1 (stereo unspecified) -18.3%
Cc1ccc(S(=O)(=O)C(CNC(=O)c2ccc(F)c(F)c2)c2ccco2)cc1 (stereo unspecified) -11.6%
CCC(=O)C1=C(c2ccc(Cl)cc2)N(C(=O)CC)n2c(C)nnc2S1 -8.35%
CCS(=O)(=O)c1ccc(O)c(Nc2cc(C)nc(SC)n2)c1 -7.64%
O=C(CSc1oc(-c2ccco2)nc1S(=O)(=O)c1ccc(Br)cc1)c1ccccc1 2.49%
CCCCn1c(=O)c2oc3ccccc3c2n(Cc2cccc(F)c2)c1=O -9.22%
CCC(C)Cn1c(/C=C/c2ccccc2)nc2ccccc21 (stereo unspecified) -22.2%
CCOC(=O)c1cccc(NC(=O)c2cc3c(=O)n(C)c4ccccc4c3n2C)c1 0.289%
Cc1ccc(CNC(=O)CCN2C(=O)COc3ccc(C)cc32)cc1 5.82%
Cc1ccc(NC2=C(CC(=O)O)C(c3ccc(F)cc3)N(c3ccc(C)cc3)C2=O)cc1 (stereo unspecified) 0.231%
O=C(CCCN1C(=O)c2cccnc2Oc2ccc(Cl)cc21)NCc1ccccc1F 0%
CC1CCN(S(=O)(=O)c2nnc(NC(=O)c3ccc(C(C)C)cc3)s2)CC1 10.7%
CCN(CC)CCOC(=O)c1ccc(NC(=O)c2nn(C)c3c2COc2ccccc2-3)cc1 -6.46%
CCc1ccc(N2CCn3c2nc2c3c(=O)n(C/C=C/c3ccccc3)c(=O)n2C)cc1 6.75%
Cc1ccc(CNC(=O)CC(C)CC2=NS(=O)(=O)c3ccccc3N2)cc1 (stereo unspecified) -2.14%
COc1ccc(NC(=O)c2c(NCc3ccc(N(C)C)cc3)sc3c2CCC3)cc1 -8.46%
Cc1ccsc1CN(C(=O)c1oc2ccc(F)cc2c1C)C1CCS(=O)(=O)C1 (stereo unspecified) -1.51%
Cc1ccc(Nc2ncc(C(=O)N3CCN(c4ccc(F)cc4)CC3)c3ccccc23)cc1Cl -2.15%
Cc1ccc(NC(=O)C2CCCN2S(=O)(=O)c2cccc3nsnc23)c(C)c1 (stereo unspecified) -16.2%
CCOc1ccc(-c2nonc2NC(=O)c2oc3cc(C)c(C)cc3c2C)cc1OCC -2.09%
Cc1ccc(C)c(-n2c3nc(=O)[nH]c(=O)c-3cc3c(C)nn(-c4ccccc4)c32)c1 -1.34%
CCc1ccc(NC(=O)c2ccc(F)c(S(=O)(=O)N3CCC4(CC3)OCCO4)c2)cc1 -11.8%
COc1cccc(CNS(=O)(=O)c2cc3[nH]c(=O)c(=O)[nH]c3cc2C)c1 -6.35%
Cc1ccccc1Cn1c2ccccc2c2cnn(CC(=O)NC(C)CCc3ccccc3)c(=O)c21 (stereo unspecified) -0.446%
CCc1ccc2oc(C(=O)Nc3c(C)n(C)n(-c4ccccc4)c3=O)cc(=O)c2c1 2.3%
CCOC(=O)c1ccc(N2C(=O)c3n[nH]c(C)c3C2c2ccccc2OC)cc1 (stereo unspecified) 0.136%
Cc1cccc(CCNc2ncnc3onc(-c4ccc(Cl)cc4)c23)c1 1.41%
